# Laboratory results from PubChem BioAssay AID463173 (ICCB-Longwood Screening Facility, Harvard Medical School, 2010).
# Out of some 52,000 compounds screened, about 4,300 (8.3%) were called active. Rule as the data show it: active = survival mostly below about 52% (no sharp cut-off); inactive = mostly above about 56%. This is one part of the list.
# Test system: DeltatarO mutant
# Test: growth inhibition of S. aureus wild type versus tarO mutant, primary screen, teichoic acid synthesis inhibitors, RN4220, OD600 (AID 463173)
# Conditions: OD600, 18 h, active compounds read low, screened at 18.75 µg/mL (by protocol)
row,SMILES,survival
1,COc1ccccc1NC(=O)C1=C(C)Nc2c(C(=O)Nc3ccc(C)cc3)cnn2C1c1cccc(OC)c1OC (configuration not stated),inactive: 55%
2,COc1ccc(N(Cc2ccccc2)C(=O)c2nc(S(C)(=O)=O)ncc2Cl)cc1,inactive: 51%
3,Cc1cc(C)nc(N(C#N)CCOc2ccc(Cl)cc2)n1,inactive: 57%
4,Cc1cccc(N2CCN(C(=O)Cn3nc(C)c4sc5ccccc5c4c3=O)CC2)c1C,inactive: 73%
5,COc1ccc(CNC(=O)Cn2c(=O)nc(-c3ccccc3)c3cc(Cl)ccc32)cc1OC,inactive: 81%
6,CCCSCCCNC(=O)C1CCN(C(=O)c2cnn(-c3ccccc3)c2-n2cccc2)CC1,inactive: 70%
7,COc1cccc(C(=O)Nc2ccc(-n3nncc3-c3ccccc3)cc2)c1OC,inactive: 97%
8,COc1ccccc1-c1c(C)nn2c(-c3ccccc3)cc(-c3ccccc3)nc12,inactive: 81%
9,CCOc1ccc(C2=NC(c3ccncc3)=Nc3ccc(C)cc3N2)cc1OCC,inactive: 91%
10,CC1CN(C(C)(C)C)CCC1(O)c1ccccc1 (configuration not stated),inactive: 100%
11,Cc1ccc(OCCn2cc(C(=O)c3cccs3)c3ccccc32)cc1,inactive: 69%
12,COc1ccc(C2CC(=O)c3c([nH]c(C(=O)OCc4ccccc4)c3C)C2)cc1 (configuration not stated),inactive: 81%
13,COCc1cc(C)nc2sc(C(=O)Nc3ccccc3O)c(N)c12,inactive: 83%
14,CCCCN(CCCC)CCNC(=O)Cn1nc(CC)n2c(cc3sccc32)c1=O,inactive: 83%
15,CCC1=Nc2cc(C(=O)NCCc3ccc(OC)c(OC)c3)ccc2Sc2ccccc21,inactive: 73%
16,Cc1ccc(/C(C#N)=C\c2ccco2)cc1,inactive: 90%
17,CCc1c(C)sc2c1CCN(Cc1cccc(OC)c1)C2c1ccccc1 (configuration not stated),inactive: 60%
18,CCc1ccc(C(=O)CC2(O)C(=O)N(CCc3ccccc3)c3ccc(Br)cc32)cc1 (configuration not stated),inactive: 52%
19,Cc1ccc(CSC2=Nc3ccccc3C3=NC(CCC(=O)NC4CCCCC4)C(=O)N23)cc1 (configuration not stated),inactive: 120%
20,CCc1ccccc1S(=O)(=O)Cc1ccc(C(=O)NCc2ccc(Cl)cc2)o1,inactive: 49%
21,COC(=O)c1ccc(Cl)cc1NC(=O)Nc1nnc(N(C)C2CCCCC2)s1,inactive: 81%
22,COc1ccc(CCC(=O)NCc2ccc3c(c2)CCN3C(=O)c2ccc(Cl)cc2)cc1,inactive: 89%

row,SMILES,survival
1,c1ccc(CN2CCN(c3nc(N4CCOCC4)c4ccccc4n3)CC2)cc1,inactive: 93%
2,O=C1S/C(=C/c2ccccc2)C(=O)N1c1ccccc1,inactive: 65%
3,CC(=O)c1cccc(NC(=O)CSc2nc3c(c(=O)[nH]2)CCC3)c1,inactive: 73%
4,COc1ccc(NC(=O)CSc2nc(-c3cccs3)cc(C(F)(F)F)n2)cc1Cl,active: 37%
5,CS(=O)(=O)c1ccc2nc(NC(=O)CN3C(=O)c4ccccc4C3=O)sc2c1,inactive: 85%
6,Cc1cccc(N2CCN(C(c3ccccc3)c3nnc(-c4ccccc4F)o3)CC2)c1C (configuration not stated),inactive: 58%
7,Cc1cc(C)cc(NC(=O)C2CCCN(S(=O)(=O)c3cccc4nsnc34)C2)c1 (configuration not stated),inactive: 105%
8,Fc1ccc(Nc2nc(SCc3ccccc3Cl)nc3ccccc23)cc1,inactive: 63%
9,NC(=O)C1CCN(C(=O)c2ccc3c(c2)N(Cc2cccc(Cl)c2)C(=O)c2ccccc2S3=O)CC1 (configuration not stated),inactive: 70%
10,CCOC(=O)c1c(C)[nH]c(C)c1S(=O)(=O)NCC(=O)Nc1ccc(C)cc1C,inactive: 72%
11,COc1ccc(CSc2nc3ccncc3n2CC(=O)Nc2cc(C)cc(C)c2)cc1,active: 60%
12,Cc1csc2nc(COC(=O)CNC(=O)c3ccc(F)cc3)cc(=O)n12,inactive: 71%
13,COc1ccc(-n2nc3ccc(NC(=O)c4c(OC)cccc4OC)cc3n2)cc1,inactive: 135%
14,O=C(Cn1c(=O)n(-c2ccc(F)cc2)c(=O)c2sc3ccccc3c21)NC1CCCC1,inactive: 90%
15,CC(OC(=O)C1=Cc2ccccc2OC1)C(=O)NCC1CCCO1 (configuration not stated),inactive: 95%
16,CCC1CCCCN1S(=O)(=O)c1ccc(S(=O)(=O)n2cnc3cc(C)c(C)cc32)cc1 (configuration not stated),inactive: 102%
17,CCc1nc2ccccc2n2c(-c3ccc(C)cc3)c3c(=O)n(C)c(=O)n(C)c3c12,inactive: 68%
18,COc1ccccc1CNC(=O)C(C)n1ccc2cc(S(=O)(=O)N3CCCC3)ccc21 (configuration not stated),inactive: 81%
19,COc1ccc(CNC(=O)c2ccc3nc(CCc4ccccc4)oc3c2)cc1,active: 0%
20,Cc1ccc(-c2[nH]c3c(c2-c2c(-n4cccc4)n(C)c(=O)[nH]c2=O)c(=O)[nH]c(=O)n3C)cc1,inactive: 65%
21,CCOC(=O)c1c(C)oc2nc(C)nc(N3CCN(c4ccccc4F)CC3)c12,inactive: 90%
22,CCOc1ccc(NC(=O)C2CCN(c3nnc(C)c4c(C)n(-c5ccccc5)nc34)CC2)cc1,inactive: 67%

row,SMILES,survival
1,Cc1ccc(NC(=O)CSc2nc3c([nH]c4ccccc43)c(=O)n2-c2ccccc2)cc1Cl,inactive: 82%
2,Cc1ccc(C2Nc3cc(C)c(C)cc3-n3c(-c4ccccc4)c4c(=O)n(C)c(=O)n(C)c4c32)o1 (configuration not stated),inactive: 68%
3,Cc1[nH]n2c(=O)cc(-c3ccc(Cl)cc3)nc2c1-c1ccccc1,active: 3%
4,Cn1c(=O)c2c(nc(N3CCOCC3)n2Cc2cccc(Br)c2)n(C)c1=O,inactive: 80%
5,COc1ccc(N2CCN(C(CNC(=O)C(=O)NCc3cccnc3)c3cccnc3)CC2)cc1 (configuration not stated),inactive: 102%
6,Cc1ccccc1CNC(=O)Cc1ccc(NC(=O)N2CCCCc3ccccc32)cc1,inactive: 76%
7,CCOc1ccc(C(=O)c2cn(CC(=O)Nc3cccc(OC)c3)c3cc4c(cc3c2=O)OCCO4)cc1,inactive: 107%
8,Cc1nn2c(-c3ccco3)ccnc2c1-c1ccc(Br)cc1,inactive: 81%
9,Cc1c(C(=O)N2CCCCC2)c(S(=O)(=O)NCc2ccc(N(C)C)cc2)c(C)n1C,inactive: 120%
10,COc1ccc(-c2cc(C(=O)Oc3ccc(C)cc3)c3cc(C)ccc3n2)cc1,active: 22%
11,O=C(CN1C(=O)COc2ccc(S(=O)(=O)N3CCCCCC3)cc21)Nc1cccc(Cl)c1,inactive: 60%
12,CC(c1ccccc1)n1cc(C(=O)NCCCN2CCCC2=O)nn1 (configuration not stated),inactive: 93%
13,CC1C(=O)CCNC1c1ccccc1 (configuration not stated),inactive: 65%
14,Cc1cc(=O)n(C(C)C(=O)N2CCCc3ccccc32)c2c1c(C)nn2-c1ccccc1 (configuration not stated),inactive: 115%
15,Cc1ccc2[nH]cc(S(=O)(=O)c3ccc(C)c(C)c3)c(=O)c2c1,inactive: 81%
16,N#C/C(=C\c1ccc[nH]1)C(=O)N1CCc2ccccc2C1,inactive: 72%
17,CC1Cn2c(C(=O)NCCc3ccc(Cl)cc3)cc3cccc(c32)S1 (configuration not stated),inactive: 86%
18,Cc1ccc(F)cc1NC(=O)CCc1c(C)nn(-c2ccc(N3CCOCC3)nn2)c1C,inactive: 97%
19,COc1ccc(NC(=O)CCS(=O)(=O)c2nc(-c3ccc4c(c3)OCO4)cc(C(F)(F)F)n2)cc1,inactive: 103%
20,COc1ccc(C)cc1NC(=O)CCc1c(C)nn(-c2ccc(N3CCCCC3)nn2)c1C,inactive: 78%
21,Cc1ccc(/C=C/c2onc(C)c2S(=O)(=O)N2CCC(C(=O)N3CCOc4ccc(C)cc43)CC2)cc1,inactive: 123%
22,Cc1c(C(=O)N2CCCC2)oc2c1-c1nn(CC(=O)NCc3ccccc3Br)cc1CC2,inactive: 72%

row,SMILES,survival
1,CSc1ccc(C2CC(=O)Oc3c2c(=O)n(C)c2ccccc32)cc1 (configuration not stated),inactive: 63%
2,CCc1nn2c(=O)cc(COC(=O)c3ccc(NC(=O)CCc4ccccc4)cc3)nc2s1,inactive: 99%
3,Nc1ccc(NC(=O)c2cccc(C(=O)Nc3ccc(N)cc3Cl)c2)c(Cl)c1,inactive: 148%
4,Cc1c(C(=O)NN=C2CCCCCC2)nnn1-c1nonc1N,inactive: 113%
5,COc1cccc(C2(O)CCN(C(=O)C3CCC3)CC2)c1,inactive: 102%
6,O=C(Nc1cccnc1)c1ccccc1Oc1ccccc1,active: 65%
7,Cc1ccc(-c2nnc(Nc3ccc(OC(F)(F)Cl)cc3)c3ccccc23)cc1S(=O)(=O)NC(C)(C)CO,inactive: 57%
8,CC(=O)N1CCc2c(sc3nc(SCC(C)C)n(-c4ccc(C)c(Cl)c4)c(=O)c23)C1,active: 45%
9,Cc1nc2scc(C)n2c(=O)c1S(=O)(=O)Nc1ccc(N2CCN(S(C)(=O)=O)CC2)cc1,inactive: 84%
10,COc1ccccc1N1CCN(C(=O)c2cnn(-c3cccc(Cl)c3)c2C2CCN(C(=O)OC(C)(C)C)CC2)CC1,inactive: 75%
11,C#CC(C)(CC)NC(=O)Cn1nnc(-c2ccc(OCc3ccccc3C)cc2)n1 (configuration not stated),inactive: 125%
12,COc1ccccc1CNc1nc(-c2ccco2)nn1C(=O)c1cc(OC)c(OC)c(OC)c1,inactive: 49%
13,CCc1ccccc1NC(=O)c1cc(S(=O)(=O)N2CCc3ccccc32)ccc1F,inactive: 95%
14,Cc1ccccc1CNC(=O)C1=Cc2ccccc2OC1,inactive: 80%
15,Cc1nn(C(C)C(=O)Nc2ccc(C(C)C)cc2)c(=O)c2c1sc1ccccc12 (configuration not stated),active: 58%
16,CCc1nc(SC)ncc1C(=O)N1CCN(c2cc(Cl)ccc2C)CC1,inactive: 80%
17,COc1cc(-c2nc(SCC(=O)Nc3ccc(C)cc3)c(-c3ccc(F)cc3)[nH]2)cc(OC)c1OC,inactive: 91%
18,CCCN(CCC)CCCNC(=O)c1cnn(-c2ccc(F)cc2)c1-n1cccc1,inactive: 112%
19,Cc1cc(=O)oc2cc(OCC(=O)NCc3ccco3)ccc12,inactive: 74%
20,O=C(Nc1nnc(-c2cc(Cl)ccc2Cl)o1)c1ccc2c(c1)OCCO2,inactive: 87%
21,CCCc1nc2ccc(NC(=O)c3ccco3)cc2c(=O)n1Cc1ccccc1Cl,inactive: 101%
